The record followed here is PMC4336329 (PLoS ONE, 2015).

Out of some 310,000 compounds screened, about 14,000 (4.5%) showed an effect of 50% or more. The effect is printed as a negative number. The list shows a part of the results.
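Further: peak tail current of the secondary pulse compared with the same well before compound.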

The target in this test is human ether-à-go-go-related gene (hERG) potassium channel (human, UniProt Q12809). Kind of test: primary screen, population patch clamp on CHO cells stably expressing hERG.
human ether-à-go-go-related gene (hERG) potassium channel, sequence (Q12809 whole entry, looked up): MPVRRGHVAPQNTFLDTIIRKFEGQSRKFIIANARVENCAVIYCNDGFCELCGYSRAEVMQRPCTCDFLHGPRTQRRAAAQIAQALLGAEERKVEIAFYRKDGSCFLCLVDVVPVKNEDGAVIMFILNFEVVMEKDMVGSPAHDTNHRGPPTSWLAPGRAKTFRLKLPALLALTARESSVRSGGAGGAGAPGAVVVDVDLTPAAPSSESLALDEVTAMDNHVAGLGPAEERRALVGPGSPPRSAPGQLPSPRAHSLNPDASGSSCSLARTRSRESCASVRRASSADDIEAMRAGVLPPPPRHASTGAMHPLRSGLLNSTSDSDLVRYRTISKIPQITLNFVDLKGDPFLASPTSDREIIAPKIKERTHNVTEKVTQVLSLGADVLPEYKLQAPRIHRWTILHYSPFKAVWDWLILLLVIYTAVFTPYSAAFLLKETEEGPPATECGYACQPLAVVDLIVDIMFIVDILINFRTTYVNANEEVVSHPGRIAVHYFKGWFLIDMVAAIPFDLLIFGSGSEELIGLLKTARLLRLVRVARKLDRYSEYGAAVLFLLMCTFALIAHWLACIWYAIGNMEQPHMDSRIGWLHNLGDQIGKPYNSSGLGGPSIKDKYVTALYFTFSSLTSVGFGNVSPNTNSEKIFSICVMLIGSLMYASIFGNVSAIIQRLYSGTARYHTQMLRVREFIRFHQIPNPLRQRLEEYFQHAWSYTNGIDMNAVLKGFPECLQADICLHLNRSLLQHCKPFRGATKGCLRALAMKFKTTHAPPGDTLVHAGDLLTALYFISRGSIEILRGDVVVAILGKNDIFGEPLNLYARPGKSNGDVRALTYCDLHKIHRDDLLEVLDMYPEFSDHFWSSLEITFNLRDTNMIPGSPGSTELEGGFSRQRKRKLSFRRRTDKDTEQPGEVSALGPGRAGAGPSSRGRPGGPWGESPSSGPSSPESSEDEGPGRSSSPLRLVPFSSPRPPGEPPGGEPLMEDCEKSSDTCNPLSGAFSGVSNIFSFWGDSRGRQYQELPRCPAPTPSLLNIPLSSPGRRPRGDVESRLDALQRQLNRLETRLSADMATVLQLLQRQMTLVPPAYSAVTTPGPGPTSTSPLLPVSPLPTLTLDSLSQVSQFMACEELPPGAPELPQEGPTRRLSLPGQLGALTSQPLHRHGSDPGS
Consider `Cc1ccc(NC(=O)CC2S/C(=N/N=C/c3ccco3)NC2=O)cc1Cl` (centres unmarked), for which the “hERG current change (%, negative = inhibition) at 10uM” value turned out to be 3.04%.
The value for `Cc1[nH]c(C)c(S(=O)(=O)N(C)Cc2ccccc2)c1C(=O)N1CCCCC1` was -25.5%; that for `CC(C)(C)c1cc[n+](/C(C(=S)Nc2ccccc2F)=C(/[O-])c2ccc3c(c2)OCCO3)cc1` was -20.7%; that for `CCNC(=S)N1CCc2cc(OC)c(OC)cc2C1COc1ccc(OC)cc1` (centres unmarked) was -1.69%.
With `Cc1cc(C)nc(Sc2ncnc3c2oc2ccccc23)n1` the figure was -1.28%.
With `COc1ccc(C2C(C(=O)O)c3ccccc3C(=O)N2C)cc1Br` (centres unmarked), the “hERG current change (%, negative = inhibition) at 10uM” value is on record as -10.5%.
The value for `CNc1nc(N(C)C)nc(N(C)C)n1` was -7.71%; that for `CC1CCC(NC(=O)c2cc(C3CC3)nn2-c2ccccc2)CC1` (centres unmarked) was -34.9%; that for `CCOc1ccc(/C(O)=C2/C(=O)C(=O)N(c3cc(C)on3)C2c2ccc(C(=O)OC)cc2)cc1` (centres unmarked) was 11.3%.
Take `C=CCNC(=O)c1ccc(OC2CCN(S(=O)(=O)N(C)C)CC2)cc1`: the “hERG current change (%, negative = inhibition) at 10uM” value is recorded as 0.986%.
As for `COc1ccc(/C=C/C(=O)c2ccc(Cl)cc2)c(OC)c1`, the “hERG current change (%, negative = inhibition) at 10uM” value was 7.13%.
`CC(=O)c1ccc(Oc2cc(-c3ccccc3)nc(-c3ccccc3)n2)cc1`: the “hERG current change (%, negative = inhibition) at 10uM” value is listed as 10.6%.
For `CCN1CCSc2ccc(C(=O)Nc3ccc(NC(C)=O)cc3)cc21`, the “hERG current change (%, negative = inhibition) at 10uM” value was determined as 1.22%.
In the case of `O=C1CS/C(=N/N=C/c2ccncc2)N1`, the “hERG current change (%, negative = inhibition) at 10uM” value came to 11.5%.
`Cc1c(NC(=O)CN2CCN(c3ccccc3)CC2)c(=O)n(-c2ccccc2)n1C`: the “hERG current change (%, negative = inhibition) at 10uM” value came to 9.86%.
The value for `O=C(O)C1CCN(C(=O)c2scc3c2OCCO3)CC1` was 3.83%; that for `Cc1ccccc1OCCC(=O)OCC(=O)NNC(=O)c1cccs1` was -0.575%; that for `Cc1ncc(CN2CCN(Cc3ccccc3)C(CCO)C2)s1` (centres unmarked) was 1.08%.
The value for `CCOc1cc(CNCC(C)C)c(Cl)cc1OCC(=O)Nc1ccccc1` was -15.2%; that for `COC(=O)c1ccccc1NC(=O)N1CCCC1` was -11.9%; that for `COc1ccccc1Oc1nc(-c2cccnc2)nc2ccccc12` was 14.8%.
As for `Cc1nn(-c2ccccc2)c2sc(C(=O)O)cc12`, the “hERG current change (%, negative = inhibition) at 10uM” value turned out to be 1.3%.
As to `COc1ccc(CCNc2ncnc3c2nnn3Cc2ccccc2)cc1`, the “hERG current change (%, negative = inhibition) at 10uM” value is reported as 13%.
With `COc1ccc(Cn2c(C)ccc2C)cc1`, the “hERG current change (%, negative = inhibition) at 10uM” value turned out to be 3.95%.
The value for `O=C(Nc1ccc(NC(=O)c2cccs2)cc1)c1cccs1` was -4.17%; that for `CCn1cc(C(=O)OCC(=O)N2C(C)CCCC2C)c(=O)c2ccc(C)nc21` (centres unmarked) was 11%; that for `CCOc1ccc(NC(=O)CN(C)C(=O)c2cc(S(=O)(=O)N3CCCCC3)ccc2C)cc1OCC` was -16.3%.
The value for `COc1ccc(S(=O)(=O)N2c3ccccc3OCC2C)cc1` (centres unmarked) was -2.26%; that for `Cc1cc(NC(=O)CSc2nc3ccccc3[nH]2)no1` was 8.42%; that for `Cc1ccccc1NC(=O)c1cc2ccccn2n1` was -6.58%.
On to `CCCCCC(=O)Nc1ccc2oc(-c3cncc(Br)c3)nc2c1`, for which the “hERG current change (%, negative = inhibition) at 10uM” value is listed as 17.6%.
The value for `CCOc1cc(/C=C2\C(=N)N3N=C(N4CCCCC4)SC3=NC2=O)ccc1OC(=O)c1ccco1` was 18.6%; that for `COc1cccc(CN2CCNC(=O)C2CC(=O)NCCOc2cccnc2)c1OC` (centres unmarked) was 14.3%.
Take `Cn1cc(Br)c(C(=O)NNC(=O)Nc2ccccc2C(F)(F)F)n1`: the “hERG current change (%, negative = inhibition) at 10uM” value is listed as 19.7%.
For the compound `CC1(C)Cc2cccc(OCC(=O)NCc3ccccc3)c2O1`, the “hERG current change (%, negative = inhibition) at 10uM” value is on record as 0.186%.
Turning to `NC(=O)c1ccccc1Nc1nc2nc3ccccc3c(=O)n2cc1Br`, the “hERG current change (%, negative = inhibition) at 10uM” value is on record as 9.58%.
The value for `CN(C)CCCNC(=S)Nc1ccc(-c2ccccc2)cc1` was -46%; that for `Cc1ccc(S(=O)(=O)Oc2ccc(/C=N/NC(=O)c3c(Cl)cnn3C)cc2)cc1` was -8.14%.
With `CC1(C)C=C(c2ccc(C=O)s2)CC(C)(C)N1C=O` the figure was -5.94%; with `CS(=O)(=O)CCC(C(=O)OCc1ccc(Cl)cc1)N1C(=O)c2ccccc2C1=O` (centres unmarked), -28%.
As for `COC(=O)C(C)(C(=O)OC)c1ccc([N+](=O)[O-])cn1`, the “hERG current change (%, negative = inhibition) at 10uM” value came to 17.8%.
With `S=c1[nH]nc(-c2ccccc2)n1/N=C/c1c[nH]c2ccccc12` the figure was 12.1%; with `O=C(c1ccco1)N1CCN(C(=O)c2cc3cc([N+](=O)[O-])ccc3oc2=O)CC1`, -52.4%.
As to `Cc1ccc(CN(C)C(=O)CN2C(=O)NC3(CCCC3)C2=O)o1`, the “hERG current change (%, negative = inhibition) at 10uM” value is 21.7%.
The value for `Cc1nc2ccccc2n1CC(=O)c1ccc(O)c(O)c1.Cl` was 1.7%.
The value for `NC(=O)NC(c1ccccc1)c1cccc2ccccc12` (centres unmarked) was -18.3%.
`O=[N+]([O-])c1ccc(O)c(/C=N/Nc2nc3ccccc3[nH]2)c1`: the “hERG current change (%, negative = inhibition) at 10uM” value is -14.4%.
Regarding `CCN(CC)CCNC(=O)C(C)c1nn(C)c(=O)c2ccccc12` (centres unmarked), the “hERG current change (%, negative = inhibition) at 10uM” value amounted to 8.67%.
The value for `O=C(CN1C(=O)CSC1=O)Nc1ccccc1F` was 6.3%.
As to `CCOC(=O)c1ccc2[nH]c3c(c2c1)CN(C)CC3`, the “hERG current change (%, negative = inhibition) at 10uM” value is -41.7%.
The value for `COc1ccccc1NCC(=O)N/N=C/c1sccc1C` was 14.2%.
Regarding `O=C(CC1C(=O)NCCN1Cc1c(F)cccc1Cl)NCCc1ccccn1` (centres unmarked), the “hERG current change (%, negative = inhibition) at 10uM” value was determined as 13.2%.
Take `COc1ccc([C@@H](OC)[C@@]2(Cc3ccc(O)cc3)N=C(N)N(C)C2=O)cc1`: the “hERG current change (%, negative = inhibition) at 10uM” value is on record as 1.37%.
Take `CCCC(c1nnnn1C1CCCCC1)N1CCN(C(=O)c2ccco2)CC1.Cl` (centres unmarked): the “hERG current change (%, negative = inhibition) at 10uM” value is listed as -23.7%.
With `O=C(/C=C/c1ccccc1[N+](=O)[O-])NCc1ccncc1` the figure was -18.8%.
The value for `O=C(CCNC(=O)c1ccc(Cl)cc1)Nc1ccccc1N1CCCC1` was -12.4%; that for `C/C(=N\NC(=O)C1CC1(C)c1ccccc1)c1ccco1` (centres unmarked) was -1.43%; that for `COc1ccc(-c2cc3ccccc3oc2=O)cc1NC(=O)c1ccc([N+](=O)[O-])o1` was 5.86%.
With `C/C(=N\NC(=O)Cc1ccccc1)c1cccs1` the figure was -4.86%; with `O=C(COc1cccc(Cl)c1)N/N=C\c1cc2ccccc2nc1Cl`, 7.39%; with `Cc1cccc(NCc2cc(Cl)cc(Cl)c2O)n1`, -3.97%.
For `Cc1cc(C)c2c(Cn3ccnc3)cc(=O)oc2c1`, the “hERG current change (%, negative = inhibition) at 10uM” value came out at 1.13%.
In the case of `CC1CCC(NC(=O)Cn2c(=O)[nH]c3ccsc3c2=O)CC1` (centres unmarked), the “hERG current change (%, negative = inhibition) at 10uM” value was 10.1%.
The value for `CCn1c(=NC(=O)c2ccc(S(=O)(=O)N(C)C)cc2)sc2cccc(OC)c21` was 12.8%.
With `COc1cc2c(cc1O)[C@@H]1Cc3ccc(OC)c(O)c3CN1CC2` the figure was -13.6%; with `O=C(c1cc(-c2ccccc2)n[nH]1)N1CCc2c([nH]c3ccccc23)C1c1ccccn1` (centres unmarked), 14.5%.
With `CCOC(=O)c1nc(C)nc(Sc2n[nH]c(-c3ccc(C(C)(C)C)cc3)n2)c1C` the figure was -8.96%.
Take `O=[N+]([O-])c1ccc(-n2nnnc2CN2CCOCC2)cc1`: the “hERG current change (%, negative = inhibition) at 10uM” value worked out at 16.9%.
With `CSCCC(NC(=O)COc1cccc2ccccc12)C(=O)O` (centres unmarked) the figure was 0.83%.
Regarding `O=C(CSc1nnc2scc(-c3ccccc3)n12)N1CCN(Cc2ccccc2)CC1`, the “hERG current change (%, negative = inhibition) at 10uM” value is listed as -41.8%.
Turning to `Cc1ccccc1-c1nnn(CC(=O)Nc2ccc3c(c2)OCO3)n1`, the “hERG current change (%, negative = inhibition) at 10uM” value is reported as 7.52%.
The value for `Fc1c(F)c(-n2nnc3ccccc32)c(F)c(F)c1Cl` was 16.6%.
In the case of `Oc1ccc(-c2n[nH]c(=S)n2-c2ccc3c(c2)OCCO3)c(O)c1`, the “hERG current change (%, negative = inhibition) at 10uM” value amounted to 24.7%.
With `CC(=O)Nc1ccc(NC(=O)C(C)OC(=O)c2cccc(S(=O)(=O)N3CCCCCC3)c2)cc1` (centres unmarked) the figure was 4.63%; with `COc1cccc(C(=O)OCCN(C)C(C)(C)C)c1.Cl`, -6.81%.
The value for `Cc1ccc(N(C)C(=O)C2CCCN2S(=O)(=O)c2ccc3c(c2)n(C)c(=O)c(=O)n3C)cc1` (centres unmarked) was -2.28%; that for `COc1ccc(C2=NOC(C(=O)N3CCN(C(=O)c4ccco4)CC3)C2)cc1OC` (centres unmarked) was 0.127%; that for `CC(=O)c1cccc(NC(=O)CN(c2ccc(F)cc2)S(C)(=O)=O)c1` was -2.75%.
The value for `Cc1ccc(S(=O)(=O)NP(=O)(Oc2ccccc2)Oc2ccccc2)cc1` was -3.7%; that for `CCOC(=O)Cn1c(=O)c2c(nc(N3CCCCC3)n2C)n(C)c1=O` was -4.44%; that for `COc1ccccc1NC(=O)NNC(=O)c1ccc2ccccc2c1O` was -5.57%.
As for `O=C1C2C3CCC(O3)C2C(=O)N1c1cccc(F)c1` (centres unmarked), the “hERG current change (%, negative = inhibition) at 10uM” value amounted to 5.53%.
As to `O=C(NCCC1CCCCN1S(=O)(=O)c1ccc(F)cc1)C(=O)NCc1ccncc1` (centres unmarked), the “hERG current change (%, negative = inhibition) at 10uM” value is on record as -25%.
With `O=[N+]([O-])c1ccc(Sc2n[nH]c(-c3ccco3)n2)nc1` the figure was -0.59%; with `N#Cc1ccc(-c2csc(NC(=O)c3ccc(N4C(=O)CCC4=O)cc3)n2)cc1`, -11%.
The value for `Cc1ccc(C(=O)N/C(=C/C=C/c2ccccc2)C(=O)NCc2ccco2)cc1` was -28.9%.
As for `COc1ccccc1CN=Cc1[nH]c2ccc(Br)c(Cl)c2c1O`, the “hERG current change (%, negative = inhibition) at 10uM” value was 13.5%.
With `Cn1c(CNC(=O)c2ccc(F)cc2)nc2ccccc21` the figure was -4.56%; with `O=C(CCc1nnc(-c2ccc3c(c2)OCO3)o1)N1CCC(c2ccc(F)cc2)C1` (centres unmarked), -56%.
